B1: Caulobacter ParB omega fusion; a variant is named by its letters at X, in order, B8GW30 (parent)
chain: MESVVVGEPGMSEGRRGLGRGLSALLGEVDAAPAQAPGEQLGGSREAPIEILQRNPDQPRRTFREEDLEDLSNSIREKGVLQPILVRPSPDTAGEYQIVAGERAWRAAQRAGLKTVPIMVRELDDLAVLEIGIIENVQRADLNVLEEALSYKVLMEKFERTQENIAQTIGKSXSHVANXMRLLXLPDEVQSYLVSGELTAXHARAIAAAADPVALAKQIIEGGLSVRETEALARKAPNLSAGKSKGGRPPRVKDTDTQALESDLSSVLGLDVSIDHRGSTGTLTITYATLEQLDDLCNRLTRGI

In all, about 81,000 sequences were measured (“one-hybrid fitness for binding parS DNA”: median about -0.17, highest 2% from about 0.51 on). The list shows a part of the results.

Variants of B1 are the subject of this assay. Put plainly: one-hybrid fitness for binding parS DNA (scaled: cognate 1, non-cognate 0); higher = stronger binding. Particulars: with parS DNA site. The procedure, abridged: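 Caulobacter ParB libraries with four specificity codons randomised were screened by bacterial one-hybrid selection in the E. coli USO strain, using a HIS3 reporter whose site lies 19 bp from the promoter. Selection ran for 48 hours at 37°C on M9 lacking histidine, with 0.1 mM IPTG and 5 mM 3-AT. Plasmids were Illumina-sequenced before and after selection, three replicate libraries were pooled, and variants with under 10 reads were dropped. Fitness is the log change in each variant's read ratio to wild type, rescaled against the cognate and non-cognate sites.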
As to NSTS, the “one-hybrid fitness for binding parS DNA” value is at most 0.2. Next, IQNF: at most 0.2. KVGA: the “one-hybrid fitness for binding parS DNA” value is at most 0.2. On to QNQP, for which the “one-hybrid fitness for binding parS DNA” value was at most 0.2. Next, LHSG: at most 0.2.

With LHFG, the “one-hybrid fitness for binding parS DNA” value is at most 0.2. For the variant DYYR, the “one-hybrid fitness for binding parS DNA” value was at most 0.2. As to YALV, the “one-hybrid fitness for binding parS DNA” value is at most 0.2. For ACRK, the “one-hybrid fitness for binding parS DNA” value is at most 0.2.

Consider CQVT, for which the “one-hybrid fitness for binding parS DNA” value was at most 0.2. Turning to YVYV, the “one-hybrid fitness for binding parS DNA” value was at most 0.2. Next, TISY: at most 0.2; VAYM: at most 0.2; SQAC: at most 0.2. As for LRIR, the “one-hybrid fitness for binding parS DNA” value was at most 0.2.

With PRCT, the “one-hybrid fitness for binding parS DNA” value is at most 0.2. Next, GAER: at most 0.2. Next, CTSN: at most 0.2. Next, DDFT: at most 0.2; AVST: at most 0.2; RMGP: 0.235. Take EGTK: the “one-hybrid fitness for binding parS DNA” value was at most 0.2.

Take KNVT: the “one-hybrid fitness for binding parS DNA” value is at most 0.2. Next, RYYS: 0.978; RVAC: 0.982; TWQC: at most 0.2. Next, TRFK: at most 0.2.

With MGLR, the “one-hybrid fitness for binding parS DNA” value was at most 0.2. Next, NQKN: at most 0.2; HNGL: at most 0.2. Next, HRLV: at most 0.2; QWQS: at most 0.2.

Take SAIC: the “one-hybrid fitness for binding parS DNA” value was at most 0.2. Next, RTMH: at most 0.2; QVIY: at most 0.2. Next, AGHT: at most 0.2; STFG: at most 0.2. On to PYAY, for which the “one-hybrid fitness for binding parS DNA” value is at most 0.2. Next, GAGS: at most 0.2; LQMS: at most 0.2.

With WYGG, the “one-hybrid fitness for binding parS DNA” value was at most 0.2.

As to VRWG, the “one-hybrid fitness for binding parS DNA” value is at most 0.2. For MTTW, the “one-hybrid fitness for binding parS DNA” value is at most 0.2. In the case of PHKQ, the “one-hybrid fitness for binding parS DNA” value was at most 0.2.

RASS: the “one-hybrid fitness for binding parS DNA” value came to 1. Next, AHWR: at most 0.2; KQWS: at most 0.2. For the variant MNHY, the “one-hybrid fitness for binding parS DNA” value is at most 0.2. Consider KHCS, for which the “one-hybrid fitness for binding parS DNA” value was at most 0.2.

Regarding QYST, the “one-hybrid fitness for binding parS DNA” value is at most 0.2. Next, QTWH: at most 0.2; MYIT: at most 0.2.

On to GYDF, for which the “one-hybrid fitness for binding parS DNA” value is at most 0.2. With WDYS, the “one-hybrid fitness for binding parS DNA” value was at most 0.2. Next, GLLV: at most 0.2; IRSG: at most 0.2; TNRP: at most 0.2. For the variant HQGR, the “one-hybrid fitness for binding parS DNA” value was at most 0.2. Next, GSTR: at most 0.2; SHKT: at most 0.2. Next, PIPK: at most 0.2; QRDR: at most 0.2; GNCL: at most 0.2.

TGVW: the “one-hybrid fitness for binding parS DNA” value was at most 0.2. Next, YHNH: at most 0.2. For the variant SGKV, the “one-hybrid fitness for binding parS DNA” value was at most 0.2. Next, SHSG: at most 0.2; PWPN: at most 0.2; VPQC: at most 0.2.

Take HWFC: the “one-hybrid fitness for binding parS DNA” value is at most 0.2.

For HHDG, the “one-hybrid fitness for binding parS DNA” value was at most 0.2. As for GSNY, the “one-hybrid fitness for binding parS DNA” value was at most 0.2. As for VISM, the “one-hybrid fitness for binding parS DNA” value is at most 0.2. On to RHNP, for which the “one-hybrid fitness for binding parS DNA” value is at most 0.2.

As for KAGR, the “one-hybrid fitness for binding parS DNA” value is at most 0.2. Take MIHT: the “one-hybrid fitness for binding parS DNA” value is at most 0.2. Next, IWRS: at most 0.2. Next, VHIS: at most 0.2; GPLA: at most 0.2. On to LHFI, for which the “one-hybrid fitness for binding parS DNA” value was at most 0.2.

As to PCFM, the “one-hybrid fitness for binding parS DNA” value is at most 0.2.

Turning to CIMK, the “one-hybrid fitness for binding parS DNA” value is at most 0.2. Next, TYYL: at most 0.2; LSAN: at most 0.2; QRCR: at most 0.2. As for SFMW, the “one-hybrid fitness for binding parS DNA” value was at most 0.2. Regarding VLLR, the “one-hybrid fitness for binding parS DNA” value was at most 0.2. Consider VHMW, for which the “one-hybrid fitness for binding parS DNA” value is at most 0.2. For the variant RFNQ, the “one-hybrid fitness for binding parS DNA” value is at most 0.2. For the variant IRGS, the “one-hybrid fitness for binding parS DNA” value was at most 0.2.

As to TGRV, the “one-hybrid fitness for binding parS DNA” value is at most 0.2. Next, SSAI: at most 0.2; IQPS: at most 0.2. Next, VDPI: at most 0.2; RTWC: 0.985; TLLP: at most 0.2. Next, YYST: at most 0.2; QHWD: at most 0.2; GLWV: at most 0.2. Consider LDTT, for which the “one-hybrid fitness for binding parS DNA” value was at most 0.2. Next, HICL: at most 0.2. Next, ASTE: at most 0.2; PTHW: at most 0.2. Consider SRNA, for which the “one-hybrid fitness for binding parS DNA” value is at most 0.2. On to PTCM, for which the “one-hybrid fitness for binding parS DNA” value was at most 0.2.

As to TMHT, the “one-hybrid fitness for binding parS DNA” value is at most 0.2. Next, PTPA: at most 0.2; FMVC: at most 0.2; WCTT: at most 0.2.

In the case of GHLC, the “one-hybrid fitness for binding parS DNA” value is at most 0.2. Take FWAC: the “one-hybrid fitness for binding parS DNA” value is at most 0.2. Next, TSVT: at most 0.2; APVS: at most 0.2. Next, SDTG: at most 0.2.

For the variant CVWR, the “one-hybrid fitness for binding parS DNA” value was at most 0.2. For QYGD, the “one-hybrid fitness for binding parS DNA” value was at most 0.2. On to RNPT, for which the “one-hybrid fitness for binding parS DNA” value came out at 0.307. Next, YVCG: at most 0.2; ETQT: at most 0.2. Next, YTCS: at most 0.2; RKPA: 0.223. With NLTG, the “one-hybrid fitness for binding parS DNA” value was at most 0.2.

With PPYG, the “one-hybrid fitness for binding parS DNA” value is at most 0.2.

As to MTLK, the “one-hybrid fitness for binding parS DNA” value is at most 0.2. Next, HRDL: at most 0.2; PNPA: at most 0.2; THVS: at most 0.2. As to NMRT, the “one-hybrid fitness for binding parS DNA” value was at most 0.2. As for YAYC, the “one-hybrid fitness for binding parS DNA” value is at most 0.2. Consider CRDG, for which the “one-hybrid fitness for binding parS DNA” value was at most 0.2. For the variant MPAS, the “one-hybrid fitness for binding parS DNA” value is at most 0.2. Next, RFHC: 0.925; YAHG: at most 0.2; GQCT: at most 0.2.

On to MYSA, for which the “one-hybrid fitness for binding parS DNA” value was at most 0.2.

Regarding PHDT, the “one-hybrid fitness for binding parS DNA” value is at most 0.2. Next, RKTM: at most 0.2; ETMM: at most 0.2. Next, MDEY: at most 0.2. For CLHR, the “one-hybrid fitness for binding parS DNA” value is at most 0.2. For the variant WDER, the “one-hybrid fitness for binding parS DNA” value was at most 0.2. Next, PLHF: at most 0.2. MPPM: the “one-hybrid fitness for binding parS DNA” value was at most 0.2. Next, KGGA: at most 0.2; VEDA: at most 0.2. Next, LHPG: at most 0.2; YSQN: at most 0.2.

For the variant KMQR, the “one-hybrid fitness for binding parS DNA” value was at most 0.2. Turning to RYVM, the “one-hybrid fitness for binding parS DNA” value was found to be 0.257. Next, GEKS: at most 0.2; RDKS: 0.45. Consider RRGD, for which the “one-hybrid fitness for binding parS DNA” value is at most 0.2. In the case of QVVR, the “one-hybrid fitness for binding parS DNA” value was at most 0.2.
